PubChem BioAssay AID2101 (National Center for Advancing Translational Sciences (NCATS), 2009)
In all, about 330,000 compounds went through this assay and about 300 (0.091%) were called active. The inconclusive results got no clear call from the source; some entries with a clear call stand among them for comparison. The call rests on the fitted dose curve; in most records, active means well fitted inhibition curve with a large enough effect; inconclusive means small, poorly fitted or top-dose-only effect, or effect the other way, or another doubt; inactive means no such curve, though single readings can be large or run the other way. Potencies of inconclusive entries are left out as doubtful fits.
Potency means the concentration at half of the fitted maximal effect.
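Wherever activity change, negative = inhibition is given: 0% = full enzyme activity and -100% = no enzyme basal.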

What follows are compounds tested against Lysosomal acid glucosylceramidase (Homo sapiens) (UniProt P04062) (assay: qHTS Assay for Inhibitors and Activators of N370S glucocerebrosidase as a Potential Chaperone Treatment of Gaucher Disease). Details: N370S GC spleen homogenate, 4MU-glucoside fluorescence; activity change, negative = inhibition: at 59.4 µM (top of the series) unless noted.
`COc1ccccc1C(=O)NNC(=O)C12CC3CC(CC(C3)C1)C2` was tested, and the Potency was inconclusive [inhibitor, single point].
In the case of `CC(C)CCNC(=O)C(c1ccco1)N(Cc1cccs1)C(=O)Cn1nnc2ccccc21` (stereo not drawn), the Potency is reported as inconclusive [activator, single point].
In the case of `Cc1nc2cc(F)ccc2n1C1CCN(C(=O)c2c(F)cccc2F)CC1`, the Potency is reported as inconclusive [activator, partial curve].
With `COc1ccc(-c2nn(-c3ccccc3)cc2C2CC(c3cccs3)=NN2C(=O)CCC(=O)O)cc1` (stereo not drawn) the Potency was “inactive”.
For `COc1ccc(N2CCN(c3c(S(=O)(=O)c4ccccc4)cnc4ccc(OC)cc34)CC2)cc1`, the Potency was inconclusive [activator, partial curve].
`COc1ccc2c(c1)CC/C(=C/c1ccccn1)C2=O` was tested, and the Potency was “inactive”.
In the case of `Cc1cccc(/C=N/NC(=O)NC23CC4CC(CC(C4)C2)C3)n1`, the Potency is reported as inconclusive [activator, full curve].
For `Cc1cc(C(=O)Nc2ccncc2)c2ccccc2n1`, the Potency was inconclusive [activator, partial curve].
With `Cc1nc2cc(C(F)(F)F)ccc2n1CCNc1nc(-c2ccc([N+](=O)[O-])c(Cl)c2)cs1` the Potency was inconclusive [activator, partial curve].
For `COc1cc(OC)c2c(C)c(Cl)c(=O)oc2c1`, the Potency was inconclusive [activator, partial curve, poor fit].
In the case of `COc1ccc(OC)c(C(c2nnnn2C2CCCC2)N2CCc3ccccc3C2)c1` (stereo not drawn), the Potency is reported as inconclusive [activator, single point].
`CN1CCc2c(sc3c2C(=O)NC(c2ccccc2)N3)C1` (stereo not drawn) was tested, and the Potency was inconclusive [activator, single point].
For `OCCN1CCN(c2nc(-c3ccccc3O)nc3ccccc23)CC1`, the Potency was inconclusive [inhibitor, partial curve].
`Cc1cc2nc(/C=C/c3cccnc3)[nH]c2cc1C` was tested, and the Potency was inconclusive [activator, partial curve].
For `CCN1CCN(Cc2ccc(NC(=O)c3ccc(C)c(NC(=O)c4cccc(-c5cn[nH]c(=O)c5)c4)c3)cc2C(F)(F)F)CC1`, the Potency was inconclusive [inhibitor, partial curve].
With `O=c1[nH]c2ccccc2cc1CN(Cc1ccco1)S(=O)(=O)c1ccccc1` the Potency was inconclusive [activator, single point].
With `COc1cccc(CN(C(=O)Cn2nnc(-c3ccccc3F)n2)C(C(=O)NC(C)(C)C)c2ccncc2)c1` (stereo not drawn) the Potency was “inactive”.
With `CCOc1ccccc1C(=O)Oc1ccc2ccc(=O)oc2c1` the Potency was inconclusive [activator, partial curve].
For `Cc1ccnc(NC(=O)Nc2cccc(F)c2)n1`, the Potency was inconclusive [activator, full curve].
For `CCOC(=O)N1CCN(/[N+]([O-])=N/Oc2ccc([N+](=O)[O-])cc2[N+](=O)[O-])C(C)C1` (stereo not drawn), the Potency was “inactive”.
`O=C(O)c1cc2c(ccc3ccccc32)o1` was tested, and the Potency was inconclusive [inhibitor, partial curve].
In the case of `COc1cccc(-c2nc(NCc3cccnc3)c3ccccc3n2)c1`, the Potency is reported as inconclusive [inhibitor, partial curve].
In the case of `COc1cccc(-c2nnc3sc(C4CCCCC4)nn23)c1`, the Potency is reported as inconclusive [activator, single point].
For `CN(Cc1cccc(F)c1)C(=O)c1ccc(NS(=O)(=O)c2ccc3[nH]c(=O)[nH]c3c2)cc1`, the Potency was inconclusive [inhibitor, partial curve].
In the case of `OCCNCc1c(OCc2ccc(Cl)cc2)ccc2ccccc12`, the Potency is reported as inconclusive [inhibitor, partial curve].
With `CCOC(=O)c1c(NC(=O)CSc2c[nH]c3ccccc23)sc2c1CCC2` the Potency was inconclusive [activator, partial curve].
With `O=c1c2ccccc2nc2c3ccccc3c3nncn3n12` the Potency was inconclusive [inhibitor, single point].
With `CN(C)C(=O)c1ccc(-c2nc(Nc3ccc(F)cc3)c3ccccc3n2)cc1` the Potency was inconclusive [inhibitor, partial curve].
For `CC(C)Cn1c(N)c(S(=O)(=O)c2cccs2)c2nc3ccccc3nc21`, the Potency was inconclusive [activator, partial curve].
In the case of `CC(C)CCC(O)(c1ccccc1)C(CN1CCOCC1)c1ccccc1` (stereo not drawn), the Potency is reported as inconclusive [inhibitor, single point].
For `S=C(NC1CCCCC1)N1CCOCCOCCN(C(=S)NC2CCCCC2)CCOCC1`, the Potency was inconclusive [activator, partial curve].
In the case of `COc1ccc(-c2cc(-c3n[nH]c(=S)n3-c3ccccc3OC)[nH]n2)cc1`, the Potency is reported as inconclusive [activator, partial curve, poor fit].
`COc1ccc(C(=O)N2N=C(c3cccc(OC)c3)CC2(O)C(F)(F)F)cc1` (stereo not drawn) was tested, and the Potency was inconclusive [activator, partial curve].
`COc1cc(C(C)=O)ccc1OCCN1CCC(Cc2ccccc2)CC1` was tested, and the Potency was inconclusive [inhibitor, partial curve].
With `COc1ccc(NC(=O)CC2C(=O)N(c3ccc(OC)cc3)C(=O)N2CCc2cccs2)cc1` (stereo not drawn) the activity change, negative = inhibition was inconclusive: 18.4% [activator].
With `Cn1c2ccccc2c(=O)c2c(=O)n(C3CCCCC3)c(-c3ccco3)nc21` the Potency was inconclusive [activator, partial curve].
`O=C(O)c1ccc2ncc(NC(=O)c3ccc(F)cc3)c(=O)n2c1` was tested, and the Potency was “inactive”.
With `CC(=O)N1CCN(c2ccc(NC(=O)c3ccccc3Br)cc2Cl)CC1` the Potency was inconclusive [inhibitor, partial curve].
`O=C1CC(c2ccsc2)c2ccc3ccccc3c2N1` (stereo not drawn) was tested, and the Potency was inconclusive [activator, single point].
With `O=C(NCc1ccco1)c1ccc2c(c1)N(Cc1ccccc1)CCS2` the Potency was inconclusive [activator, partial curve].
For `Cc1ccc(S(=O)(=O)c2nc(S(=O)(=O)c3ccccc3)sc2N2CCN(CCO)CC2)cc1`, the Potency was inconclusive [inhibitor, partial curve].
For `O=C(CSCc1ccc([N+](=O)[O-])cc1)Nc1ccc(S(=O)(=O)N2CCCCCC2)cc1`, the Potency was inconclusive [inhibitor, partial curve].
In the case of `c1csc(C2CCCN2c2nc3nonc3nc2NC2CC2)n1` (stereo not drawn), the Potency is reported as inconclusive [activator, partial curve, poor fit].
In the case of `CCCCCCCNC(=O)C1(CC2CC(c3cccc(Br)c3)=NO2)CCNCC1` (stereo not drawn), the Potency is reported as inconclusive [inhibitor, partial curve].
In the case of `Cc1cc(Sc2nnc(N)s2)c2ccccc2n1`, the Potency is reported as “inactive”.
In the case of `CCC(NC(=O)c1cccc(Cn2nc(C)c([N+](=O)[O-])c2C)c1)c1ccc(C(C)C)cc1` (stereo not drawn), the activity change, negative = inhibition is reported as inconclusive: 35.3% [activator].
For `Brc1ccc(-c2nnc(-c3cccc(Br)c3)o2)cc1`, the activity change, negative = inhibition was inconclusive: 33.1% [activator].
For `Cc1cc(=O)oc2cc(NC(=O)c3ccnn3C)ccc12`, the Potency was inconclusive [activator, single point].
`Cc1ccc(NC(=O)CSc2ccccc2NC(=O)c2ccccc2Cl)cc1Cl` was tested, and the Potency was inconclusive [activator, single point].
For `CCOC(=O)c1cnc2c(C(F)(F)F)cccc2c1N1CCN(C)CC1`, the Potency was inconclusive [inhibitor, partial curve, poor fit].
In the case of `Cc1cccc(NC(=O)CSc2nc3c(oc4ccccc43)c(=O)n2-c2ccccc2)c1`, the Potency is reported as inconclusive [activator, full curve].
With `CCCCn1c(N)c(N(CCC(C)C)C(=O)c2ccccc2-n2cnnn2)c(=O)[nH]c1=O` the Potency was “inactive”.
In the case of `Cc1ccsc1C(=O)N1CC=C(c2ccccc2)CC1`, the Potency is reported as inconclusive [inhibitor, full curve, poor fit].
`Cc1ccccc1-n1c(SCC(=O)Nc2ccccc2)nc2nc3c(cc2c1=O)CCCC3` was tested, and the Potency was inconclusive [activator, partial curve].
With `Cc1cc(=O)oc2c(CN(CC(C)C)CC(C)C)c(O)ccc12` the Potency was inconclusive [activator, partial curve].
For `COc1cccc(NC(=O)CN(C)C(=O)c2ccccc2OCC(=O)Nc2cccc(C(F)(F)F)c2)c1`, the Potency was inconclusive [activator, partial curve, poor fit].
For `CN(Cc1nccn1C)C(=O)c1cc(COc2cccc(C(F)(F)F)c2)on1`, the Potency was inconclusive [inhibitor, single point].
With `N#Cc1nc(COc2ccccc2F)oc1N1CCCCCC1` the Potency was inconclusive [activator, single point].
For `COc1cc(NC(=O)c2ccc(C(C)(C)C)cc2)c(OC)cc1NC(=O)CN1CCCCC1`, the Potency was inconclusive [inhibitor, single point].
In the case of `O=C(CSc1nc2ccccc2n1Cc1ccccc1Cl)N/N=C/c1ccccc1C(=O)O`, the Potency is reported as inconclusive [activator, partial curve].
With `CCS(=O)(=O)CCSc1nc2ccccc2o1` the Potency was “inactive”.
`Cc1ccc(NC(=O)COc2ccccc2)cc1Cl` was tested, and the Potency was inconclusive [activator, single point].
With `O=C(N/N=C\c1ccc(COc2ccc([N+](=O)[O-])cc2)o1)c1ccc(Cl)cc1` the Potency was “inactive”.
